Test results reported in the supplement of paper PMC7826260.
This is one part of the list. The data describe in vitro nicking of single-stranded DNA by Rep domains (1 h at 37 °C, 3 µM enzyme); the outer parts of the 90-letter strands are left off. Numbers give uncut DNA relative to the enzyme-free pool, as log2; the lower, the more was cut; hits are not called. Reads are scaled to the total; uncut strands gain when others are lost, and binding without cutting may add a little.

The sequences below were run on T1, Rep nickase domain of wheat dwarf virus (assay: uncleaved DNA left, log2 of reads against the no-enzyme library (log2 ratio); higher = less cleavage (more negative = more Rep cleavage of the k-mer); sequences stand for … in CTCGTCCG…ACCGGAGA).
T1 sequence (residues 1-137 of Rep, tag left off): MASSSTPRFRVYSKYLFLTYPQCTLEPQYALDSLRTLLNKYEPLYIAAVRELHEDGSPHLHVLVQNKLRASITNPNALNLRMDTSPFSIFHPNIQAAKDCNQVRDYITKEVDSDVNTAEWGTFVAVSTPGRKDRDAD
Protocol: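 A pool of 90-nt single-stranded DNAs with seven random bases just before the constant AC of the nick site (name = the seven bases) was cut by 3 µM recombinant His6-SUMO-tagged Rep nickase domain (300 nM DNA, 50 mM HEPES pH 8.0, 50 mM NaCl, 1 mM MnCl2, 1 h, 37 °C, three replicates). Uncut DNA was amplified and sequenced.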

Row | Sequence | uncleaved DNA left (log2)
1 | AGCATGC | 0.12
2 | GACTCCA | 0.309
3 | CCTTCTA | -0.124
4 | TTGGGAA | 0.169
5 | GATTTTA | 0.000686
6 | ACGGAAG | -0.188
7 | GCCGTAG | -0.0654
8 | AATACGC | -0.146
9 | TCTGGAA | 0.0445
10 | AAACCTG | -0.00175
11 | TTTGAAC | 0.00426
12 | GCTAGCT | -0.0821
13 | AAAGTTG | 0.0609
14 | CCCGTCT | -0.409
15 | ATTGGGG | 0.135
16 | ATGCCGG | 0.012
17 | AGGAGGG | -0.0393
18 | GGGCCAC | 0.0349
19 | TTATACT | -3.51
20 | AGCGGAA | 0.221

Row | Sequence | uncleaved DNA left (log2)
21 | CATCCAG | -0.0787
22 | CCGACCG | -0.295
23 | AAGCGAT | 0.0226
24 | TGGCTCT | 0.0369
25 | GAGACGA | 0.143
26 | CCACAAT | -0.047
27 | CCATCTT | -0.213
28 | TTGAGCG | -0.0909
29 | TGTAGTG | -0.205
30 | CCTATCC | 0.0276
31 | ACCTCCT | 0.0314
32 | TAACAGG | 0.277
33 | AAGTCTC | -0.0196
34 | ATCACAA | 0.0568
35 | AGTTGGT | -0.214
36 | AACTTTA | 0.0546
37 | TGCTGAG | 0.0808
38 | TACAACC | 0.111
39 | GCATGTA | -0.0422
40 | CCGGTTT | -0.228
